Reference: patent US9351960B2 (priority 2012, dated 2016)

Test system: cytopathogenic hepatitis C virus (HCV) strain of genotype 1b
Conditions: for HCV titers (lg TCID50 for SPEV cell cultures) in medium samples derived from FEC cultures: Day 2; for HCV titers (lg TCID50 for SPEV cell cultures) in medium samples derived from FEC cultures / decrease of HCV titers: FEC

O=C(O)CCCC(=O)NCCc1c[nH]cn1 [glutaryl histamine]
HCV titers (lg TCID50 for SPEV cell cultures) in medium samples derived from FEC cultures (0.005 μg/mL, treatment 24 hours after infection): 0 lg TCID50 | HCV titers (lg TCID50 for SPEV cell cultures) in medium samples derived from FEC cultures (0.005 μg/mL, treatment 24 hours before infection): 5.0 lg TCID50 | HCV titers (lg TCID50 for SPEV cell cultures) in medium samples derived from FEC cultures (0.005 μg/mL, treatment at the time of infection): 5.5 lg TCID50 | HCV titers (lg TCID50 for SPEV cell cultures) in medium samples derived from FEC cultures (0.05 μg/mL, treatment 24 hours after infection): 1.8 lg TCID50 | HCV titers (lg TCID50 for SPEV cell cultures) in medium samples derived from FEC cultures (0.05 μg/mL, treatment 24 hours before infection): 4.5 lg TCID50 | HCV titers (lg TCID50 for SPEV cell cultures) in medium samples derived from FEC cultures (0.05 μg/mL, treatment at the time of infection): 5.0 lg TCID50 | HCV titers (lg TCID50 for SPEV cell cultures) in medium samples derived from FEC cultures (0.5 μg/mL, treatment 24 hours after infection): 0 lg TCID50 | HCV titers (lg TCID50 for SPEV cell cultures) in medium samples derived from FEC cultures (0.5 μg/mL, treatment 24 hours before infection): 4.5 lg TCID50 | HCV titers (lg TCID50 for SPEV cell cultures) in medium samples derived from FEC cultures (0.5 μg/mL, treatment at the time of infection): 6.0 lg TCID50 | HCV titers (lg TCID50 for SPEV cell cultures) in medium samples derived from FEC cultures (5.0 μg/mL, treatment 24 hours after infection): 0 lg TCID50 | HCV titers (lg TCID50 for SPEV cell cultures) in medium samples derived from FEC cultures (5.0 μg/mL, treatment 24 hours before infection): 4.5 lg TCID50 | HCV titers (lg TCID50 for SPEV cell cultures) in medium samples derived from FEC cultures (5.0 μg/mL, treatment at the time of infection): 6.5 lg TCID50 | HCV titers (lg TCID50 for SPEV cell cultures) in medium samples derived from FEC cultures (50.0 μg/mL, treatment 24 hours after infection): 2.5 lg TCID50 | HCV titers (lg TCID50 for SPEV cell cultures) in medium samples derived from FEC cultures (50.0 μg/mL, treatment 24 hours before infection): 4.5 lg TCID50 | HCV titers (lg TCID50 for SPEV cell cultures) in medium samples derived from FEC cultures (50.0 μg/mL, treatment at the time of infection): 6.2 lg TCID50 | HCV titers (lg TCID50 for SPEV cell cultures) in medium samples derived from FEC cultures (500.0 μg/mL, treatment 24 hours after infection): 0 lg TCID50 | HCV titers (lg TCID50 for SPEV cell cultures) in medium samples derived from FEC cultures (500.0 μg/mL, treatment 24 hours before infection): 4.5 lg TCID50 | HCV titers (lg TCID50 for SPEV cell cultures) in medium samples derived from FEC cultures (500.0 μg/mL, treatment at the time of infection): 5.5 lg TCID50 | decrease of HCV titers (cells treated 24 hours before infection): 2.0 lg | decrease of HCV titers (introduced immediately after infection): 1.0-1.5 lg | infectious activity of HCV in the FEC cultures (added 24 hours after infection, culture fluid derived 48 hours after infection): completely suppressed

Like-named read-outs stand apart in the source and are kept apart here.
